Measurements taken from paper PMC10761827.
Substitutions are numbered along the chain they refer to. These are yes or no findings as the source states them, for the method shown. In cells and extracts the contact can be indirect. Some results given as binding are weak or reduced against the parent protein; the word gives no strength. For some of these results: Where a sequence is shown, tags or fusion partners need not be part of it.

Protein sequences, listed by entry. Tags and fused reporters are not part of them. Lines headed by an entry give the natural chain unless they say otherwise; changes in a name come on top. Chains listed by the source or under a name are the forms on record and can include a tag or linker. Residues count along the entry.
UniProt Q9EP73: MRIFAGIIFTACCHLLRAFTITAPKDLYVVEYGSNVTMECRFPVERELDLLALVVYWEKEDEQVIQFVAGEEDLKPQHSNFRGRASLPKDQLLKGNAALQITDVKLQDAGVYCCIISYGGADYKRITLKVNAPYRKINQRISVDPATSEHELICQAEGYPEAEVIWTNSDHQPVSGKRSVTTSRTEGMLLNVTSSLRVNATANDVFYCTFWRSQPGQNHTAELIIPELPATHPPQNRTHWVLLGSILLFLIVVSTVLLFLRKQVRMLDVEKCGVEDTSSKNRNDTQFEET
Myc-PD-L1 3KR (K262R/K271R/K280R) (Q9EP73, form named): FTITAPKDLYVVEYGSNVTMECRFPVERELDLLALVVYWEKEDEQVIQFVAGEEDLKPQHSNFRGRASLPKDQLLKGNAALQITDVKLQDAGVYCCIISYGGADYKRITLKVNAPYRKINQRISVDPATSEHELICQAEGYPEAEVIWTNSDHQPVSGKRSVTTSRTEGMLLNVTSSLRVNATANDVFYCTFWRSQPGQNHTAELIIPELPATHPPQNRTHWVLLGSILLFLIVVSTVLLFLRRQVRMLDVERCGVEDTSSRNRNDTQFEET
UniProt Q9NZQ7, residues 19-290: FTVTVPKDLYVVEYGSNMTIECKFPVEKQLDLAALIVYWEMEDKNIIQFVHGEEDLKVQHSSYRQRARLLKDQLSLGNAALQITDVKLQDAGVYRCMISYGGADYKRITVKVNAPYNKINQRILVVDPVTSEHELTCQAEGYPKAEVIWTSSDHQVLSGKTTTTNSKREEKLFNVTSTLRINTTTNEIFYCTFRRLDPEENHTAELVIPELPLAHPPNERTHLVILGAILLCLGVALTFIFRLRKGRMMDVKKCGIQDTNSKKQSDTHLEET

Columns and labels:
[1] = target: T1, OTUB2-Flag (wild-type) (not stated (human or mouse cDNA cloned)) (UniProt Q96DC9); assay: co-IP; 293T (HEK293T) cells cotransfected with tagged OTUB2 and PD-L1 constructs; Pierce IP lysis buffer; anti-Flag M2 affinity gel or anti-HA magnetic beads, or antibody with Dynabeads Protein A, 4 °C; immunoblot
T1 sequence: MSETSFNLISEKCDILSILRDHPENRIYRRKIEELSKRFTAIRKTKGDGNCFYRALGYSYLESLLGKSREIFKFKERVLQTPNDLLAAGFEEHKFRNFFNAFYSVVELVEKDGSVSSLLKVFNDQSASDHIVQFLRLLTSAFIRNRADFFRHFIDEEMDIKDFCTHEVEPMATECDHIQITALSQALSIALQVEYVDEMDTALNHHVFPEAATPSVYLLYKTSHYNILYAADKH

[2] = target: T2, OTUB2-Flag C51S mutant (not stated (human or mouse cDNA cloned)) (UniProt Q96DC9); assay: as above
T2 sequence: T1 sequence with C51S

[3] = target: T3, Myc-OTUB2 (not stated (human or mouse cDNA cloned)) (UniProt Q96DC9); assay: as above
T3 sequence: T1 sequence

[4] = target: T4, OTUB2 44-234 (amino acids 44-234; OTU domain) (not stated (human or mouse cDNA cloned)) (UniProt Q96DC9); assay: as above
T4 sequence: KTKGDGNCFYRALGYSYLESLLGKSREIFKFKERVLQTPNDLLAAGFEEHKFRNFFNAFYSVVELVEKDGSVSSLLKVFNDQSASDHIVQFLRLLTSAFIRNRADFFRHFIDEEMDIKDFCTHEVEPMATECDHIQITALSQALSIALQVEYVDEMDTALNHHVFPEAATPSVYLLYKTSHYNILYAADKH

[5] = target: T5, OTUB2 FL (lenti-HA vector) (not stated (human or mouse cDNA cloned)) (UniProt Q96DC9); assay: as above
T5 sequence: T1 sequence

[6] = target: T6, endogenous OTUB2 (NCI-H358 cells) (human (endogenous in NCI-H358)) (UniProt Q96DC9); assay: proximity ligation; Duolink in situ PLA on fixed NCI-H358 cells with anti-OTUB2 and anti-PD-L1 antibodies
T6 sequence: T1 sequence

[7] = target: T6, endogenous OTUB2 (NCI-H358 cells) (human (endogenous in NCI-H358)); assay: co-IP; endogenous proteins, NCI-H358 cell lysate, immunoprecipitation with an anti-OTUB2 antibody, Dynabeads Protein A; immunoblot

Row | Substance | binding [1] | binding [3] | further results
1 | Myc-PD-L1 3KR (K262R/K271R/K280R) (from UniProt Q9EP73 19-290) (ligand) | binds | – | –
2 | Myc-PD-L1 ΔICD (amino acids 1-260) (from UniProt Q9EP73 19-260) (domain or fragment) | no binding | – | –
3 | PD-L1 (untagged construct) (from UniProt Q9EP73 19-290) (ligand) | binds | – | binding [2]: no binding
4 | PD-L1-Flag (PD-L1 FL) (from UniProt Q9EP73 19-290) (ligand) | – | binds | binding [4]: binds; binding [5]: binds
5 | PD-L1ΔICD (amino acids 1-260), as used with Myc-OTUB2 in Fig. 2f (from UniProt Q9EP73 19-260) (domain or fragment) | – | no binding | –
6 | endogenous PD-L1 (NCI-H358 cells) (from UniProt Q9NZQ7 19-290) (ligand) | – | – | binding [6]: binds; binding [7]: binds
